We go through 28 molecules from the antibiotic and cytotoxicity screens of Wong et al. (2023).

Molecules are shown by their SMILES. This is one part of the list.

One assay concerns HSkMC. Description: cytotoxicity call (relative viability < 0.9). To be noted: 10 µM.
The next assay relates to HepG2. Description: cytotoxicity call (relative viability < 0.9). To be noted: 10 µM.
The test system of another assay is S. aureus RN4220. The experiment in a line: growth inhibition call (relative growth <= 0.2). Particulars: 50 µM.

As to `C[C@H]1CN([C@@H](C)CO)C(=O)Cc2cc(NC(=O)Cc3ccccc3)ccc2O[C@H]1CN(C)S(=O)(=O)c1cccs1`, the cytotoxicity call in the assay on HSkMC and in the assay on HepG2 was “inactive” throughout. Also, in the assay with S. aureus RN4220, the growth inhibition call was “inactive”.

As for `N=C(N)NC(=O)c1cnccn1`, the cytotoxicity call in the assay on HSkMC and in the assay with HepG2 was “inactive” throughout. The growth inhibition call in the assay on S. aureus RN4220 is “inactive”.

Regarding `[N-]=[N+]=Nc1ccccc1[C@@H]1OC(c2ccc(OCCCO)cc2)=N[C@]1(CCS(=O)(=O)c1ccccc1)C(=O)NC[C@@H](O)CO`, the cytotoxicity call in the assay on HSkMC and with HepG2 was “inactive” each time. In the assay with S. aureus RN4220, the growth inhibition call was “inactive”.

As for `NCC[C@H]1CC[C@H](NC(=O)C2CCCCC2)[C@H](CO)O1`, the cytotoxicity call in the assay with HSkMC and in the assay on HepG2 was “inactive” each time. Besides, the growth inhibition call with S. aureus RN4220 was “inactive”.

For `COc1ccc(NC(=O)N(C)C[C@@H]2Oc3ccc(NC(=O)CCCN(C)C)cc3CC(=O)N([C@H](C)CO)C[C@H]2C)cc1`, the cytotoxicity call in the assay with HSkMC and in the assay with HepG2 was “inactive” in each case. The growth inhibition call with S. aureus RN4220 is “inactive”.

As to `COc1ccc(S(=O)(=O)N(C)C[C@H]2Oc3ccc(NS(=O)(=O)c4cn(C)cn4)cc3CC(=O)N([C@@H](C)CO)C[C@@H]2C)cc1`, the cytotoxicity call in the assay on HSkMC and in the assay on HepG2 was “inactive” in each case. In addition, the growth inhibition call in the assay on S. aureus RN4220 is “inactive”.

Take `CC(C)NC(=O)Nc1ccc2c(c1)C(=O)N([C@H](C)CO)C[C@H](C)[C@@H](CN(C)S(=O)(=O)c1cn(C)cn1)O2`: the cytotoxicity call with HSkMC and in the assay with HepG2 was “inactive” in each case. The growth inhibition call in the assay on S. aureus RN4220 was “inactive”.

`C[C@H]1CN([C@@H](C)CO)C(=O)Cc2cc(NS(=O)(=O)c3cn(C)cn3)ccc2O[C@H]1CN(C)C(=O)Nc1ccc(F)cc1`: the cytotoxicity call in the assay with HSkMC and in the assay on HepG2 was “inactive” throughout. Also, in the assay with S. aureus RN4220, the growth inhibition call is “inactive”.

Take `C[C@H](CO)N1C[C@H](C)[C@H](CN(C)CC2CC2)Oc2cc(C#Cc3ccc(F)cc3)ccc2S1(=O)=O`: the cytotoxicity call in the assay with HSkMC and in the assay with HepG2 was “inactive” throughout. The growth inhibition call with S. aureus RN4220 is “inactive”.

`C[C@H](CO)N1C[C@H](C)[C@H](CN(C)C(=O)Nc2ccccc2)Oc2c(NC(=O)c3ccc(-c4nccs4)cc3)cccc2C1=O`: the cytotoxicity call in the assay with HSkMC and in the assay with HepG2 was “inactive” in each case. The growth inhibition call in the assay with S. aureus RN4220 is “inactive”.

Take `C[C@H]1CN([C@@H](C)CO)C(=O)c2cc(NC(=O)C3CCCCC3)ccc2O[C@H]1CN(C)C(=O)Nc1cccc2ccccc12`: the cytotoxicity call in the assay with HSkMC and with HepG2 was “inactive” in each case. In addition, the growth inhibition call in the assay on S. aureus RN4220 is “inactive”.

For `Cc1noc(C)c1NC(=O)Nc1ccc2c(c1)C(=O)N([C@H](C)CO)C[C@@H](C)[C@@H](CN(C)C(=O)C1CCCCC1)OCCCC[C@H](C)O2`, the cytotoxicity call in the assay on HSkMC and with HepG2 was “inactive” throughout. In addition, in the assay with S. aureus RN4220, the growth inhibition call is “inactive”.

Take `CO[C@@H]1CN(C)C(=O)c2ccc(NS(=O)(=O)CC(F)(F)F)cc2OC[C@@H](C)N(C(=O)c2ccc3c(c2)OCO3)C[C@H]1C`: the cytotoxicity call with HSkMC and in the assay on HepG2 was “inactive” in each case. The growth inhibition call in the assay with S. aureus RN4220 is “inactive”.

For the molecule `COc1ccc(CN(C)C[C@@H]2Oc3ccc(NS(=O)(=O)c4c(C)noc4C)cc3CC(=O)N([C@H](C)CO)C[C@@H]2C)cc1`, the cytotoxicity call in the assay with HSkMC and in the assay with HepG2 was “inactive” throughout. The growth inhibition call in the assay on S. aureus RN4220 is “inactive”.

As to `C[C@@H]1CN([C@H](C)CO)C(=O)c2cccc(NS(C)(=O)=O)c2O[C@H]1CN(C)Cc1ccc(C(=O)O)cc1`, the cytotoxicity call with HSkMC and in the assay with HepG2 was “inactive” in each case. Also, the growth inhibition call with S. aureus RN4220 was “inactive”.

Take `C[C@H]1CN([C@@H](C)CO)S(=O)(=O)c2ccc(C#Cc3ccccc3F)cc2O[C@H]1CN(C)C(=O)c1ccc2c(c1)OCO2`: the cytotoxicity call with HSkMC and in the assay with HepG2 was “inactive” throughout. For the same molecule, the growth inhibition call with S. aureus RN4220 is “inactive”.

For `C[C@@H]1S[C@H](C)C(=O)NC1=O`, the cytotoxicity call with HSkMC and with HepG2 was “inactive” in each case. Further, in the assay with S. aureus RN4220, the growth inhibition call is “inactive”.

For the molecule `Cc1noc(C)c1NC(=O)Nc1ccc2c(c1)C(=O)N([C@@H](C)CO)C[C@H](C)[C@@H](CN(C)S(=O)(=O)c1ccccc1)OCCCC[C@@H](C)O2`, the cytotoxicity call in the assay on HSkMC and in the assay with HepG2 was “inactive” throughout. Besides, in the assay on S. aureus RN4220, the growth inhibition call is “inactive”.

For the molecule `COC(=O)CN[C@H]1CCS(=O)(=O)C1`, the cytotoxicity call in the assay on HSkMC and in the assay on HepG2 was “inactive” throughout. The growth inhibition call in the assay with S. aureus RN4220 is “inactive”.

Turning to `Cc1cc(C(C)(C)C)c(O)c(C(C)(C)C)c1`, the cytotoxicity call in the assay on HSkMC and in the assay with HepG2 was “active” each time. In the assay on S. aureus RN4220, the growth inhibition call was “inactive”.

Consider `COc1c2ccoc2c(OC)c2oc(=O)ccc12`, for which the cytotoxicity call in the assay on HSkMC is “inactive”. Besides, in the assay with HepG2, the cytotoxicity call is “active”. Further, the growth inhibition call with S. aureus RN4220 is “inactive”.

In the case of `N#C[C@H](NCCO)c1ccc(F)cc1`, the cytotoxicity call in the assay with HSkMC and in the assay with HepG2 was “inactive” each time. The growth inhibition call in the assay with S. aureus RN4220 is “inactive”.

In the case of `Cc1ccc(-c2cnc3c(c2)C(=O)N([C@@H](C)CO)C[C@@H](C)[C@@H](CN(C)C(=O)Cc2ccncc2)O3)cc1`, the cytotoxicity call with HSkMC and in the assay with HepG2 was “inactive” in each case. The growth inhibition call in the assay on S. aureus RN4220 was “inactive”.

In the case of `Cc1oc(=O)oc1CN1CCN(c2cc3c(cc2F)c(=O)c(C(=O)O)c2n3C(C)S2)CC1` (centres undefined), the cytotoxicity call with HSkMC and with HepG2 was “inactive” each time. Also, in the assay with S. aureus RN4220, the growth inhibition call is “active”.

`C[C@@H]1CCCCO[C@@H](CN(C)S(C)(=O)=O)[C@H](C)CN([C@H](C)CO)C(=O)c2cc(NS(C)(=O)=O)ccc2O1`: the cytotoxicity call in the assay with HSkMC and in the assay on HepG2 was “inactive” throughout. Moreover, the growth inhibition call in the assay on S. aureus RN4220 was “inactive”.

`CC(C)NC(=O)N(C)C[C@H]1Oc2ccc(NS(=O)(=O)c3cn(C)cn3)cc2C(=O)N([C@@H](C)CO)C[C@@H]1C`: the cytotoxicity call in the assay with HSkMC and in the assay with HepG2 was “inactive” each time. The growth inhibition call with S. aureus RN4220 is “inactive”.

In the case of `Cc1noc(C)c1S(=O)(=O)Nc1ccc2c(c1)C(=O)N([C@@H](C)CO)C[C@@H](C)[C@@H](CN(C)Cc1ccccc1)OCCCC[C@@H](C)O2`, the cytotoxicity call with HSkMC and with HepG2 was “inactive” in each case. Moreover, the growth inhibition call in the assay with S. aureus RN4220 is “inactive”.

As for `C[C@H]1NC(=O)[C@H](Cc2ccccc2)NC(=O)[C@@]23C(=O)N[C@@H](Cc4ccccc4)[C@@H]2[C@H](C)[C@@]2(C)O[C@H]2[C@H]3/C=C/C/C=C\CNC1=O`, the cytotoxicity call in the assay on HSkMC (human skeletal muscle cells) and in the assay with HepG2 was “inactive” in each case. The growth inhibition call in the assay on S. aureus RN4220 was “inactive”.
